Measured values from the supplement of paper PMC6206098.
± gives the uncertainty stated by the source. The sequences are guide strands of siRNAs; only the seed at positions 2 to 7 varies.

How the values were obtained:
3LL = assay: cell viability relative to siNT1 control; higher = less toxic; conditions: concentration: 10 nM; 96 h; Mus musculus;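 further: Luminescence-based viability of cells reverse transfected in 384-well plates with lipid-complexed siRNAs built on a non-toxic 19mer backbone whose passenger strand carries 2′-O-methyl groups at positions 1 and 2, triplicates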
H460 = assay: cell viability relative to lipid-only control; HeyA8 human ovarian and H460 human lung cancer; M565 mouse liver and 3LL mouse lung cancer; siNT1 is a non-toxic control siRNA; higher = less toxic; conditions: concentration: 10 nM; 96 h; Homo sapiens
Protocol: (§1)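 Arrayed screen of 4096 siRNA duplexes, each carrying one of all possible 6mer seeds at guide-strand positions 2-7 in a fixed neutral 19mer scaffold (constant flanks: U at position 1, then ACAUGUAAACCA, plus a 3' AA overhang). The passenger strand is 2'-O-methylated at positions 1-2 so only the guide strand loads into RISC. Duplexes were reverse-transfected at 10 nM with RNAiMAX in triplicate in 384-well plates; viability was read by CellTiter-Glo ATP content 96 h after transfection. Values are % viability normalised to lipid-only wells (HeyA8, H460, M565) or to siNT1 (3LL).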

HeyA8 = assay: as above; conditions: concentration: 10 nM; 96 h; Homo sapiens
Protocol: as §1

M565 = assay: as above; conditions: concentration: 10 nM; 96 h; Mus musculus
Protocol: as §1
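Wherever cell viability relative to lipid-only control is given: reverse lipid transfection in 384-well plates, in triplicate, of duplexes on a non-toxic 19mer backbone with passenger strand 2′-O-methylated at positions 1 and 2, luminescence viability read-out.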

Sequence | cell viability (3LL) | cell viability (H460) | cell viability (HeyA8) | cell viability (M565)
UAGGUAAACAUGUAAACCAAA | 86.4 ± 10% | 69.7 ± 12% | 69.9 ± 4% | 56.7 ± 6.3%
UUUCCGGACAUGUAAACCAAA | 92.3 ± 5.9% | 76.8 ± 14% | 97.7 ± 2% | 32.9 ± 3.3%
UCCGCAUACAUGUAAACCAAA | 99.4 ± 23% | 65 ± 15% | 64.6 ± 7.5% | 52.7 ± 14%
UUUGAUUACAUGUAAACCAAA | 91.3 ± 2.4% | 92.8 ± 13% | 86.8 ± 2.4% | 93.3 ± 6.7%
UGCGCAGACAUGUAAACCAAA | 72.9 ± 7.3% | 90.7 ± 16% | 51.6 ± 3.4% | 76.2 ± 1.9%
UGAUAGGACAUGUAAACCAAA | 9.89 ± 5.4% | 51.6 ± 11% | 50.3 ± 4.6% | 48.7 ± 10%
UAUACUAACAUGUAAACCAAA | 106 ± 11% | 92.3 ± 18% | 93.7 ± 2% | 107 ± 15%
UUGGAAGACAUGUAAACCAAA | 68.9 ± 10% | 78.4 ± 4.5% | 59.4 ± 1.5% | 53.6 ± 8.6%
UCCGACCACAUGUAAACCAAA | 48.1 ± 9.4% | 38.9 ± 3.2% | 5.47 ± 0.31% | 17.2 ± 3.5%
UUAAACAACAUGUAAACCAAA | 98.9 ± 13% | 83.7 ± 20% | 99.2 ± 4.2% | 107 ± 21%
UGGUCGAACAUGUAAACCAAA | 96.1 ± 10% | 41.6 ± 5.7% | 56.9 ± 1.4% | 109 ± 13%
UCAUGUGACAUGUAAACCAAA | 93 ± 19% | 37.2 ± 7.4% | 68.5 ± 3.9% | 41.2 ± 4.5%
UACCUUUACAUGUAAACCAAA | 45.5 ± 12% | 50.2 ± 9.1% | 24.6 ± 3.2% | 53.3 ± 12%
UCCCUAUACAUGUAAACCAAA | 98.9 ± 34% | 59.5 ± 10% | 82 ± 4.1% | 74.1 ± 16%
UAGAUAUACAUGUAAACCAAA | 81.7 ± 0.86% | 95.2 ± 20% | 65.5 ± 5.5% | 73.8 ± 6.4%
UUGCUCUACAUGUAAACCAAA | 37.1 ± 4.2% | 53.1 ± 5.7% | 65.4 ± 3.4% | 21.4 ± 7.3%
UAUCUGGACAUGUAAACCAAA | 35.5 ± 3.2% | 30 ± 3% | 25.4 ± 3.3% | 37.1 ± 5.9%
UCUGCGGACAUGUAAACCAAA | 97 ± 12% | 61.1 ± 8% | 57.7 ± 2.3% | 40.7 ± 10%
UUGCCCCACAUGUAAACCAAA | 4.92 ± 2.1% | 62.8 ± 4.9% | 79.9 ± 10% | 16 ± 2.3%

Sequence | cell viability (3LL) | cell viability (H460) | cell viability (HeyA8) | cell viability (M565)
UGUUAUCACAUGUAAACCAAA | 67.3 ± 5.8% | 36.3 ± 0.45% | 50.3 ± 10% | 12.4 ± 4.6%
UAACCUUACAUGUAAACCAAA | 94.8 ± 6.1% | 79.3 ± 9.9% | 65.3 ± 5.4% | 77.2 ± 8.1%
UGACUCUACAUGUAAACCAAA | 9.83 ± 1.7% | 41.2 ± 3.9% | 37.4 ± 4.5% | 11.3 ± 1.3%
UGCUAAAACAUGUAAACCAAA | 88.3 ± 12% | 70 ± 7.7% | 70.9 ± 8.6% | 80 ± 1.6%
UCUAUCAACAUGUAAACCAAA | 101 ± 18% | 63.8 ± 10% | 88 ± 9.6% | 75.3 ± 16%
UCGUCGGACAUGUAAACCAAA | 59.1 ± 17% | 56.9 ± 8.8% | 51 ± 2.4% | 60.5 ± 6.8%
UGGCAGCACAUGUAAACCAAA | 5.78 ± 0.91% | 21.1 ± 0.76% | 1.74 ± 0.23% | 7.28 ± 1.1%
UCACUAUACAUGUAAACCAAA | 92.9 ± 19% | 27.2 ± 2.3% | 72.4 ± 2.1% | 75.9 ± 6.8%
UAAUAAUACAUGUAAACCAAA | 112 ± 12% | 75 ± 6.5% | 81.3 ± 10% | 73.6 ± 20%
UCGUUUCACAUGUAAACCAAA | 85.6 ± 14% | 72 ± 5.7% | 41.5 ± 5.8% | 88.1 ± 11%
UAAACUGACAUGUAAACCAAA | 110 ± 11% | 85.5 ± 8.6% | 97.9 ± 7.2% | 109 ± 18%
UCCCAUCACAUGUAAACCAAA | 45.5 ± 9.7% | 45.4 ± 7.4% | 62.6 ± 5.5% | 20.5 ± 5.7%
UGAGCCUACAUGUAAACCAAA | 10.1 ± 3.1% | 52.5 ± 6.5% | 57.1 ± 1.8% | 4.75 ± 0.97%
UUUAGUUACAUGUAAACCAAA | 99.1 ± 6% | 79.8 ± 5.9% | 91.2 ± 2.4% | 95.8 ± 6%
UUGGGAGACAUGUAAACCAAA | 9.1 ± 0.46% | 18.3 ± 1.7% | 12.3 ± 1.1% | 56.5 ± 21%
UUGACAAACAUGUAAACCAAA | 83.8 ± 9.2% | 90.46 ± 0.55% | 102 ± 12% | 90.3 ± 16%
UGACCGAACAUGUAAACCAAA | 73.7 ± 6.2% | 52.4 ± 6.9% | 79.7 ± 10% | 28.8 ± 12%
UUUACCUACAUGUAAACCAAA | 75.4 ± 6.1% | 73.2 ± 8.3% | 91.3 ± 3.2% | 81.3 ± 7.3%
UGUGAUAACAUGUAAACCAAA | 91.44 ± 0.91% | 54.5 ± 7% | 63.1 ± 9.6% | 65 ± 8%

Sequence | cell viability (3LL) | cell viability (H460) | cell viability (HeyA8) | cell viability (M565)
UAGACAGACAUGUAAACCAAA | 61.2 ± 5.7% | 83 ± 10% | 79.5 ± 3.5% | 31.4 ± 7.5%
UGGGCCAACAUGUAAACCAAA | 62.7 ± 4% | 20.9 ± 3.6% | 5.5 ± 0.21% | 16.2 ± 2.7%
UUUGCGCACAUGUAAACCAAA | 94.5 ± 9.7% | 90.8 ± 10% | 80.5 ± 7.2% | 62 ± 11%
UCCCCACACAUGUAAACCAAA | 91.8 ± 30% | 73.3 ± 8.9% | 83.3 ± 2.5% | 46.2 ± 7.9%
UGAGAGAACAUGUAAACCAAA | 84.1 ± 15% | 68.3 ± 9.2% | 87.9 ± 1.7% | 15.6 ± 4.5%
UGGAGGGACAUGUAAACCAAA | 33 ± 4.7% | 14.9 ± 2.6% | 6.54 ± 0.59% | 4.25 ± 0.47%
UUGCUCAACAUGUAAACCAAA | 86.4 ± 1% | 56.8 ± 5.3% | 74.6 ± 4.1% | 73.9 ± 13%
UAAACGCACAUGUAAACCAAA | 65.4 ± 4.7% | 59.2 ± 4.6% | 79.8 ± 17% | 77.4 ± 5.6%
UUCUCUUACAUGUAAACCAAA | 88 ± 8.8% | 55.17 ± 0.55% | 78.3 ± 5.2% | 79.5 ± 5.1%
UCAGGUCACAUGUAAACCAAA | 33.8 ± 6% | 43.1 ± 8% | 28.1 ± 5.2% | 22.6 ± 9.8%
UGGGAGCACAUGUAAACCAAA | 23.3 ± 6.1% | 24.4 ± 2.2% | 4.13 ± 1.3% | 18.6 ± 3%
UUAGCGUACAUGUAAACCAAA | 52.6 ± 5.7% | 101 ± 6.5% | 81.4 ± 2.2% | 35.1 ± 4%
UAUCAGUACAUGUAAACCAAA | 112 ± 3.8% | 60 ± 4.9% | 27.6 ± 3.7% | 113 ± 12%
UGACAUAACAUGUAAACCAAA | 94.3 ± 21% | 75.6 ± 12% | 102 ± 11% | 72.9 ± 7%
UUCCGGUACAUGUAAACCAAA | 56.8 ± 20% | 70.2 ± 1.4% | 65.3 ± 11% | 21.1 ± 1.5%
UCCUUCCACAUGUAAACCAAA | 29.5 ± 3.7% | 39.4 ± 1.8% | 26.7 ± 0.94% | 27.6 ± 2.7%
UUCUUGUACAUGUAAACCAAA | 25.9 ± 7.8% | 66.9 ± 14% | 60 ± 12% | 83.7 ± 13%
UGAAGCGACAUGUAAACCAAA | 97.5 ± 7.5% | 94 ± 17% | 83 ± 2.9% | 51.4 ± 5%
UAGUGAAACAUGUAAACCAAA | 92.4 ± 7.6% | 72.6 ± 8.1% | 91.9 ± 6.6% | 49.5 ± 4.4%
